Test results: PubChem BioAssay AID588591 (National Center for Advancing Translational Sciences (NCATS), 2011)
Out of some 390,000 compounds screened, about 4,700 (1.2%) were called active. The shares of active, inactive and inconclusive entries below differ from those in the screen. Calls come from the whole dose curve; as a rule, active = well fitted inhibition curve with a large enough effect; inconclusive = small, poorly fitted or top-dose-only effect, or another doubt; inactive = no such curve, though single readings can be large or run the other way. Where the call is inconclusive, the potency comes from a doubtful curve fit.

These molecules were tested against DNA polymerase eta (Homo sapiens) (UniProt Q9Y253) (assay: qHTS for Inhibitors of Polymerase Eta). Details: recombinant Pol eta, fluorescent DNA replication assay; series mostly up to 114 µM; activity change, negative = inhibition: at the top concentration.
Sequence of UniProt Q9Y253 (Q9Y253 whole entry, looked up): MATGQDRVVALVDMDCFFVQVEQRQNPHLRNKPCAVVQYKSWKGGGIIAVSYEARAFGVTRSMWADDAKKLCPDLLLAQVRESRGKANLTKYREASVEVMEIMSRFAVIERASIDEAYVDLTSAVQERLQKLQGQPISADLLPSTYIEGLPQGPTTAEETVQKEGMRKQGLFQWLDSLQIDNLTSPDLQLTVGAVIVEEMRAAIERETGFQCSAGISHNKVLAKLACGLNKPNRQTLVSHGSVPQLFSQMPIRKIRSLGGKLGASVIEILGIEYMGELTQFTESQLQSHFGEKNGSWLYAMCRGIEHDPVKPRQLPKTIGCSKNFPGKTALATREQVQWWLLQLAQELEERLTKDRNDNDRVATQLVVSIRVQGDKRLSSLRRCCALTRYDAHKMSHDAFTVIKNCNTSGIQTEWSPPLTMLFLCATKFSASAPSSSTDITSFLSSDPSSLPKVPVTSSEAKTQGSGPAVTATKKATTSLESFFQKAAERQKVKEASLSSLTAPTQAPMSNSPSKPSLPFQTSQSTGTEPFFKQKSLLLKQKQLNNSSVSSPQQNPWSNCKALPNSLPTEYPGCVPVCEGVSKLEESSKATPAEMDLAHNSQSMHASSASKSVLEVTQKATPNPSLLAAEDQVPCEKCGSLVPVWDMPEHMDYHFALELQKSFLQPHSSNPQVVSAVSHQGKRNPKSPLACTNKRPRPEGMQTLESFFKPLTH
How it was run: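 Pol eta (10 nM) was preincubated with compounds for 15 min at room temperature, after which fluorescent replication substrate (50 nM final) was added to start the reaction. Fluorescence was read kinetically at 0 and 10 min.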
% is set by controls: 0 for no effect and ±100 for the full control effect; potency is the fitted concentration of half-maximal effect; tags give direction and shape of the fitted curve.

| Compound | Potency | activity change, negative = inhibition |
| --- | --- | --- |
| O=C(CC1CCCCC1)N1CCCC(c2nc(-c3ccc(S(=O)(=O)N4CCCC4)cc3)no2)C1 (stereo not drawn) | inconclusive: 89.1 µM [inhibitor, single point] | – |
| COc1cc(/C=C/c2[nH]c(=O)[nH]c(=O)c2[N+](=O)[O-])ccc1OCCC(C)C | inconclusive: 50.1 µM [inhibitor, partial curve] | – |
| Cc1ccc(Cl)c2sc(NC(=O)C3CC3)nc12 | – | inactive: -6.06% |
| CCOc1cc(C(c2c(O)nc(SC)[nH]c2=O)c2c(O)nc(SC)[nH]c2=O)ccc1O | – | inactive: -13% |
| COc1ccc(NC(=O)CCOc2cc(C)ccc2C)cc1S(=O)(=O)N1CCCCC1 | – | inactive: -29.4% |
| O=C(Cc1cccs1)N/N=C/c1ccco1 | inconclusive: 39.8 µM [inhibitor, partial curve, poor fit] | – |
| Cc1nc2c(cc1C(=O)N/N=C/c1ccc(O)c(O)c1)c(=O)n(C)c(=O)n2C | inconclusive: 39.8 µM [inhibitor, single point] | – |
| Cn1cccc1C(=O)NC(=O)CSc1cccc[n+]1[O-] | inconclusive: 25.1 µM [inhibitor, partial curve] | – |
| C=CCn1c(COc2ccc(Cl)cc2)nnc1SCC(=O)N/N=C/c1cccc(O)c1 | inconclusive: 39.8 µM [inhibitor, partial curve, poor fit] | – |
| Cc1ccc2onc(CNC(=O)N3CCN(c4cccc(C)c4C)CC3)c2c1 | inconclusive: 79.4 µM [inhibitor, partial curve, poor fit] | – |
| CC[n+]1c(/C=C/c2ccc(N(C)C)cc2)ccc2ccccc21 | inconclusive: 31.6 µM [inhibitor, partial curve, poor fit] | – |
| CCN1C(=O)C(CC(=O)Nc2ccc(Br)cc2)N(CCCc2ccccc2)C1=S (stereo not drawn) | inconclusive: 35.5 µM [inhibitor, partial curve, poor fit] | – |
| Cc1ccc(S(=O)(=O)c2nc(-c3ccccc3)oc2NCc2cccnc2)cc1 | inconclusive: 39.8 µM [inhibitor, partial curve, poor fit] | – |
| Cc1ccc(-c2nn(-c3ccccc3)cc2C(=O)NCC2CCCO2)cc1 (stereo not drawn) | – | inactive: -14.8% |
| COc1ccc(N2C(=O)C3[C@@H](C2=O)C2(Cl)C(Cl)=C(Cl)C3(Cl)C2(OC)OC)cc1 (stereo partly drawn) | inconclusive: 79.4 µM [inhibitor, partial curve, poor fit] | – |
| O=c1[nH]c(/C=C/c2ccccc2)c([N+](=O)[O-])c(=O)[nH]1 | inconclusive: 44.7 µM [inhibitor, partial curve] | – |
| COc1cc(NC(=O)c2ccc(C)cc2)ccc1NC(=O)c1cc2ccccc2o1 | inconclusive: 28.2 µM [inhibitor, full curve] | – |
| CCOc1ccc(-c2nc(SCC(=O)Nc3ccc4c(c3)OCO4)c(-c3ccc(F)cc3)[nH]2)cc1 | inconclusive: 89.1 µM [inhibitor, single point] | – |
| CCOC(=O)Nc1ccc(NCc2ccc(F)cc2)nc1N | active: 28.2 µM | – |
| O=C(Nc1ccc(-c2nnc(-c3ccco3)o2)cc1)C(c1ccccc1)c1ccccc1 | inconclusive: 31.6 µM [inhibitor, single point] | – |
| COc1ccccc1N1CCN(CCN2C(=O)CC(=C3c4ccccc4-c4ccccc43)C2=O)CC1 | inconclusive: 14.1 µM [inhibitor, full curve] | – |

| Compound | Potency | activity change, negative = inhibition |
| --- | --- | --- |
| Cc1cc(C)n2nc(SCC(=O)NC(=O)c3ccccc3Cl)nc2n1 | inconclusive: 15.8 µM [inhibitor, partial curve, poor fit] | – |
| CCCn1c(SCC(=O)Nc2nnc(-c3ccccc3)s2)nnc1-c1ccccn1 | inconclusive: 35.5 µM [inhibitor, single point] | – |
| CC1CCC2(CC1)NC(=O)N(CC(=O)Nc1sc3c(c1C(N)=O)CCC3)C2=O (stereo not drawn) | active: 17.8 µM | – |
| Cc1cccc2cc(C#N)c(SCC(=O)N3CC(=O)Nc4ccccc43)nc12 | inconclusive: 35.5 µM [inhibitor, partial curve, poor fit] | – |
| COc1ccc2cc3cc(C(=O)Nc4ccc5c(c4)OCO5)oc3nc2c1 | inconclusive: 12.6 µM [inhibitor, full curve, poor fit] | – |
| Cc1sc2ncn(CC(=O)N(C)c3ccc(Br)cc3)c(=O)c2c1S(=O)(=O)N1CCC(C)CC1 | inconclusive: 89.1 µM [inhibitor, partial curve, poor fit] | – |
| COc1ccccc1C(=O)NC(=O)COC(=O)CCOc1ccc(C)cc1 | inconclusive: 89.1 µM [inhibitor, single point] | – |
| COc1cc(OC)c(OC)cc1/C=N/NC(=O)C[n+]1ccccc1 | – | inactive: -11.3% |
| CCOC(=O)CSc1nc(=O)n2cccc(C)c2n1 | – | inactive: 4.67% |
| COCCCn1c(=O)/c(=C/c2ccccc2OC(C)C)s/c1=C(\C#N)C(=O)Nc1ccc(C(=O)O)cc1 | inconclusive: 20 µM [inhibitor, full curve, poor fit] | – |
| CC(C)C[C@@H](CNCC(=O)[C@H](Cc1ccccc1)NC(=O)c1[nH]cnc1C(=O)N[C@@H](C)CN)NC(=O)c1nc[nH]c1C(=O)N[C@@H](C)C(=O)O | – | inactive: -2.61% |
| CNS(=O)(=O)c1cccc(C(=O)OCC(=O)c2ccc3[nH]c(=O)[nH]c3c2)c1 | inconclusive: 20 µM [inhibitor, single point] | – |
| Cc1ccc(NC(=O)NCCc2c(C)nn(C)c2C)cc1Cl | – | inactive: -7.78% |
| COc1ccc(-c2nc3ccc(N4CCCC4)cc3c(=O)[nH]2)cc1OC | inconclusive: 39.8 µM [inhibitor, partial curve, poor fit] | – |
| O=C(c1ccoc1)N1CCN(c2cc(-c3ccco3)nc3cc(-c4ccccc4)nn23)CC1 | inconclusive: 35.5 µM [inhibitor, partial curve, poor fit] | – |
| Cc1c(C)c2ccc(OCc3ccc(C(=O)O)o3)c(C)c2oc1=O | inconclusive: 15.8 µM [inhibitor, full curve, poor fit] | – |
| Cc1ccc(-c2nc3sc(CCNC(=O)c4ccc(Br)o4)c(C)n3n2)cc1 | inconclusive: 89.1 µM [inhibitor, partial curve, poor fit] | – |
| CCCn1c(/C=N/Nc2nc3ccccc3[nH]2)nc2ccccc21 | inconclusive: 11.2 µM [inhibitor, partial curve, poor fit] | – |
| O=C(CSc1nnc(CNC(=O)c2c(F)cccc2F)o1)c1ccc(Cl)cc1 | – | inactive: -22.2% |
| O=C1C=CC(=Nc2cccc3c2C(=O)c2ccccc2-3)O1 | – | inactive: -24.9% |
| Cc1ccc(OCC(=O)Nc2nnc(SCc3cc(=O)c4ccccc4[nH]3)s2)cc1 | – | inactive: -3.29% |

| Compound | Potency | activity change, negative = inhibition |
| --- | --- | --- |
| Cc1ccc(CNC(=O)c2ccc(Cn3nc(C)c(Cl)c3C)o2)cc1 | inconclusive: 8.91 µM [inhibitor, full curve, poor fit] | – |
| O=C1c2cc(CO)cc(O)c2C(=O)c2c(O[C@@H]3OC(CO)[C@@H](O)[C@@H](O)[C@@H]3O)cccc21 (stereo partly drawn) | – | inactive: 3.9% |
| CC(C)(CN1CCC(Cc2ccccc2)CC1)NS(=O)(=O)c1ccccc1 | inconclusive: 89.1 µM [inhibitor, partial curve, poor fit] | – |
| CCOc1ccc(CCNC(=O)C2CC(C)=CCC2C(=O)O)cc1OCC (stereo not drawn) | active: 28.2 µM | – |
| COc1ccc(-n2c(=O)c3c4c(sc3n(Cc3ccc(F)cc3)c2=O)CCCC4)c(OC)c1 | – | inactive: -16% |
| O=C(NCc1ccccc1Cl)c1ccc2nc[nH]c2c1 | inconclusive: 12.6 µM [inhibitor, partial curve, poor fit] | – |
| O=S(=O)(Nc1nc2ccccc2nc1Nc1ccc2c(c1)OCCO2)c1cccs1 | inconclusive: 89.1 µM [inhibitor, single point] | – |
| Cc1nc2c(C(=O)NCCC3=CCCCC3)c[nH]n2c(=O)c1Cl | inconclusive: 89.1 µM [inhibitor, single point] | – |
| CCCCOc1ccc(CON(C(C)=O)C(C)=O)cc1Cl | inconclusive: 100 µM [inhibitor, partial curve, poor fit] | – |
| CN1C(=O)/C(=C/c2ccc(OCc3ccc(C(=O)O)cc3)c(Cl)c2)NC1=S | inconclusive: 31.6 µM [inhibitor, partial curve, poor fit] | – |
| O=C(Nc1ccc(-c2cn3ccccc3n2)cc1)c1cccs1 | inconclusive: 31.6 µM [inhibitor, partial curve] | – |
| COc1cc(OC)c(OC)cc1CN1CCN(Cc2cccn2C)CC1 | inconclusive: 25.1 µM [inhibitor, partial curve] | – |
| O=C(CSc1nccn1-c1ccc(F)cc1)Nc1ccc2c(c1)OCO2 | inconclusive: 12.6 µM [inhibitor, partial curve, poor fit] | – |
| CC(=O)c1cccc(NC(=O)C(C)OC(=O)c2cc(C)oc2C)c1 (stereo not drawn) | inconclusive: 100 µM [inhibitor, partial curve, poor fit] | – |
| C=CCN1C(=O)/C(=C/c2ccc(OCC(=O)O)cc2)S/C1=N/c1nccs1 | inconclusive: 25.1 µM [inhibitor, partial curve] | – |
| Cc1ccc(S(=O)(=O)N2CCOCC2)cc1C(=O)OCC(=O)Nc1ccc2[nH]c(=O)[nH]c2c1 | inconclusive: 22.4 µM [inhibitor, full curve] | – |
| O=C1c2oc3ccccc3c(=O)c2C(c2ccccc2)N1Cc1ccc2c(c1)OCO2 (stereo not drawn) | – | inactive: -5.19% |
| Brc1ccc2oc3c(N4CCOCC4)ncnc3c2c1 | inconclusive: 14.1 µM [inhibitor, partial curve, poor fit] | – |
| CC(C)CCNC(=O)c1cc(-c2ccco2)nc2ccccc12 | – | inactive: -4.75% |
| CN(C(=O)C1CCCCC1)C1CCS(=O)(=O)C1 (stereo not drawn) | – | inactive: 0.237% |
| CC(C)(C)OC(=O)N1CCC(c2c(C(=O)N3CCC(c4ccccc4)C3)cnn2-c2cccc(Cl)c2)CC1 (stereo not drawn) | – | inactive: -24.4% |
